{"source": "PubChem BioAssay AID651820", "about": "(National Center for Advancing Translational Sciences (NCATS), 2012)", "note": "The whole screen tested about 340,000 compounds, of which about 12,000 (3.5%) were called active. Inconclusive results, whose numbers are uncertain, are shown with a selection of clear calls. Calls follow the shape of the dose curve; as a rule, active = well fitted inhibition curve with a large enough effect; inconclusive = small, poorly fitted or top-dose-only effect, or another doubt; inactive = no such curve, though single readings can be large or run the other way. No potency is given beside an inconclusive call; the fits are too rough. % is scaled to controls: 0 for no effect and ±100 for the full control effect; potency is read from the fitted curve at half-maximal effect; tags tell the direction and shape of the fitted curve."}
{"assay": "qHTS Assay for Inhibitors of Hepatitis C Virus (HCV)", "conditions": "Huh7.5.1 HCVcc-Cre (HCVcc is cell-culture hepatitis C virus) infection, luciferase reporter, 44 h; activity change, negative = inhibition: at 41.8 µM (top of the series) unless noted", "how_it_was_run": "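Seed cells (1,000/well) for 4 h; treat with compound and infect with HCVcc-Cre, moi about 0.5. Incubate 44 h, then detect luciferase activity.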"}
{"smiles": "CCOCCn1c(SCCc2ccccc2)nc2c1c(=O)[nH]c(=O)n2C", "Potency": "inconclusive [inhibitor, single point]"}
{"smiles": "N#C/C(=C\\Nc1ccccc1O)c1nc2ccccc2o1", "Potency": "active: 10 µM"}
{"smiles": "CCOc1ccc(-c2ccc(SCC(=O)NCC3CCCO3)nn2)cc1", "note": "(configuration not stated)", "activity change, negative = inhibition": "inactive: 1.85%"}
{"smiles": "CCCOC1CCCN(C(=O)c2cc(COc3cncc(Cl)c3)on2)C1", "note": "(configuration not stated)", "Potency": "inconclusive [inhibitor, single point]"}
{"smiles": "CCCCn1c(N)c(N(CCC(C)C)C(=O)Cc2ccc(S(=O)(=O)N3CCOCC3)s2)c(=O)[nH]c1=O", "Potency": "inconclusive [inhibitor, single point]"}
{"smiles": "CCCCCCc1cc2cc(-c3nnc(-c4ccccc4)o3)c(=O)oc2cc1O", "Potency": "inconclusive [inhibitor, single point]"}
{"smiles": "Cc1cc2ccccc2n1CCNC(=O)C1CCCCC1", "activity change, negative = inhibition": "inactive: -13.9%"}
{"smiles": "COc1ccc(Cc2nnc(NC(=O)c3c(-c4ccccc4)noc3C)s2)cc1OC", "activity change, negative = inhibition": "inactive: -1.59%"}
{"smiles": "COc1ccc(C2CC(c3cccc(Cl)c3)=NN2c2ccc(S(N)(=O)=O)cc2)cc1", "note": "(configuration not stated)", "Potency": "active: 12.6 µM"}
{"smiles": "Cc1ccc2nc(N/N=C\\c3ccc([N+](=O)[O-])o3)nc(-c3ccccc3)c2c1", "Potency": "inconclusive [inhibitor, full curve]"}
{"smiles": "O=C(NCc1ccco1)c1cccc(S(=O)(=O)N2CCN(Cc3ccccc3)CC2)c1", "activity change, negative = inhibition": "inactive: -8.65%"}
{"smiles": "O=C(COC(=O)C1=COCCO1)Nc1ccccc1OC(F)F", "activity change, negative = inhibition": "inactive: 17.2%"}
{"smiles": "CCOc1ccccc1N(CC(=O)Nc1ccccc1F)S(=O)(=O)c1ccccc1", "Potency": "inconclusive [inhibitor, single point]"}
{"smiles": "Cc1ccc(Oc2cc([N+](=O)[O-])cc3c2C(=O)Nc2ccccc2O3)cc1", "Potency": "active: 12.6 µM"}
{"smiles": "CCOC(=O)c1sc(NC(=O)CCN2C(=O)c3ccccc3C2=O)c(C(=O)OCC)c1C", "Potency": "inconclusive [inhibitor, full curve, poor fit]"}
{"smiles": "CC(=O)Oc1ccccc1C1=NN(C(=O)/C=C/c2ccccc2)C(c2ccccc2)C1", "note": "(configuration not stated)", "Potency": "inconclusive [inhibitor, partial curve, poor fit]"}
{"smiles": "O=C(NCc1ccccc1)c1ccc(S(=O)(=O)C(F)F)cc1", "Potency": "inconclusive [inhibitor, partial curve, poor fit]"}
{"smiles": "CN1CCc2c(sc3nc(SCC(N)=O)n(-c4ccccc4)c(=O)c23)C1", "Potency": "inconclusive [inhibitor, single point]"}
{"smiles": "Cc1nc2nc(SCC(=O)NCCCN3CCCC3)nn2c(C)c1Cc1ccccc1Cl", "Potency": "inconclusive [inhibitor, single point]"}
{"smiles": "COc1ccc(-c2csc(Nc3cccc(C)n3)n2)cc1", "Potency": "inconclusive [inhibitor, single point]"}
{"smiles": "C=C(C)COc1ccc(-c2[nH]ncc2-c2ccc(OC)c(OC)c2)c(O)c1", "Potency": "active: 2 µM"}
{"smiles": "O=C(/C=C/c1ccco1)Nc1ccccn1", "Potency": "inconclusive [inhibitor, single point]"}
{"smiles": "O=C(O)CCc1ccc(-c2ccc(F)cc2)n1Cc1ccco1", "activity change, negative = inhibition": "inactive: 10.7%"}
{"smiles": "Cc1cccc(C)c1N1CCN(S(=O)(=O)c2ccc(F)cc2)CC1", "Potency": "inconclusive [inhibitor, single point]"}
{"smiles": "COc1ccc(CNC(=O)N2CCN(c3cccc(C)c3C)CC2)cc1OC", "Potency": "inconclusive [inhibitor, single point]"}
{"smiles": "CCOC(=O)c1sc2nc(C)nc(SC(C)C(=O)N(C)c3ccccc3)c2c1C", "note": "(configuration not stated)", "Potency": "inconclusive [inhibitor, single point]"}
{"smiles": "Cc1cc(C(=O)Nc2ccc(F)cc2F)on1", "activity change, negative = inhibition": "inactive: 13.4%"}
{"smiles": "O=C(Nc1cc(C(F)(F)F)ccc1N1CCOCC1)c1ccc(Br)o1", "Potency": "inconclusive [inhibitor, full curve, poor fit]"}
{"smiles": "Nn1c(Cc2ccccc2)nc2ccccc2c1=O", "activity change, negative = inhibition": "inactive: 14.1%"}
{"smiles": "COc1ccc(C(=O)NC2CCN(CC(=O)NCc3cccc(OC)c3)CC2)cc1", "activity change, negative = inhibition": "inactive: -8.08%"}
{"smiles": "CC(C)(CO)Cc1cc(C(C)(C)C)c(O)c(C(C)(C)C)c1", "Potency": "inconclusive [inhibitor, partial curve]"}
{"smiles": "C=CCn1c(=O)c2c3c(sc2n2c(Nc4ccc(OC)cc4)nnc12)CCCC3", "Potency": "inconclusive [inhibitor, single point]"}
{"smiles": "CC(OC(=O)CCC(=O)c1ccc(Cl)s1)C(=O)NC1(C#N)CCCCC1", "note": "(configuration not stated)", "activity change, negative = inhibition": "inactive: 2.18%"}
{"smiles": "CCOC(=O)c1[nH]c(C)c(C(=O)OC(C)C(=O)Nc2ncc(Cl)cc2Cl)c1C", "note": "(configuration not stated)", "Potency": "inconclusive [inhibitor, single point]"}
{"smiles": "CC1CC(C)CN(CCC(=O)Nc2ccc(Br)cc2)C1", "note": "(configuration not stated)", "Potency": "inconclusive [inhibitor, partial curve]"}
{"smiles": "Cc1cc(-c2nn(-c3ccccc3F)cc2CNCCc2cnc[nH]2)c(C)s1", "activity change, negative = inhibition": "inactive: 7.52%"}
{"smiles": "CN1CCN(c2ccccc2NC(=O)c2ccc(N3CCOCC3)c([N+](=O)[O-])c2)CC1", "activity change, negative = inhibition": "inactive: -4.82%"}
{"smiles": "COc1ccc2cc3c(N)c(C(=O)N4CCCC4)sc3nc2c1", "Potency": "inconclusive [inhibitor, single point]"}
{"smiles": "COCCCNS(=O)(=O)c1ccc(Oc2ncc(C(F)(F)F)cc2Cl)cc1", "Potency": "inconclusive [inhibitor, partial curve]"}
{"smiles": "COc1cc(C(=O)Nc2ccc(NC(=O)C3CC3)nc2)cc(OC)c1OC", "Potency": "inconclusive [inhibitor, single point]"}
{"smiles": "O=S(=O)(c1ccc2c(c1)OCCO2)N1CCC(c2nc3ccccc3s2)CC1", "Potency": "inconclusive [inhibitor, partial curve, poor fit]"}
{"smiles": "CCOc1ccc2nc(SCC(=O)c3ccc(Cl)s3)sc2c1", "Potency": "inconclusive [inhibitor, single point]"}
{"smiles": "CCOC(=O)Cn1c(=N)n(CCOc2ccc(OC)cc2)c2ccccc21", "activity change, negative = inhibition": "inactive: -3.49%"}
{"smiles": "Cc1cc(C)cc(NCc2cc(=O)oc3cc(C)c(O)cc23)c1", "Potency": "inconclusive [inhibitor, single point]"}
{"smiles": "Cc1nc(N2CCN(c3ccccn3)CC2)c2c(C)c(C(=O)Nc3ccc(Br)cc3C)sc2n1", "activity change, negative = inhibition": "inactive: 8.56%"}
{"smiles": "CCCC(=O)Nc1ccc(Cl)c(NC(=S)NC(=O)c2ccco2)c1", "Potency": "inconclusive [inhibitor, single point]"}
{"smiles": "CC(C)(C)S(=O)(=O)/C(C#N)=N/Nc1ccc(Cl)cc1", "Potency": "inconclusive [inhibitor, single point]"}
{"smiles": "O=[N+]([O-])c1cc(Cl)ccc1Sc1ccccn1", "activity change, negative = inhibition": "inactive: 3.76%"}
{"smiles": "COc1ccccc1NCc1nnc(SCC(=O)N/N=C/c2ccco2)n1-c1ccc(Cl)cc1Cl", "Potency": "inconclusive [inhibitor, single point]"}
{"smiles": "CCOC(=O)C1=C(C)N=c2s/c(=C/c3ccco3)c(=O)n2C1c1cccc(OC)c1", "note": "(configuration not stated)", "Potency": "inconclusive [inhibitor, full curve]"}
{"smiles": "CC(=O)c1ccc(NC(=O)C(C)OC(=O)c2ccc3c(c2)nc(C)n3-c2ccccc2)cc1", "note": "(configuration not stated)", "Potency": "inconclusive [inhibitor, partial curve]"}
{"smiles": "Cc1ccccc1-c1nc(-c2ccc(NC(=O)c3cccs3)cc2)no1", "Potency": "active: 14.1 µM"}
{"smiles": "O=C(Nc1ccccc1)N1CCCC1", "activity change, negative = inhibition": "inactive: 0.654%"}
{"smiles": "C=CCn1c(SCC(=O)c2ccc(O)c(O)c2)nnc1-c1ccc(C)cc1", "Potency": "inconclusive [inhibitor, single point]"}
{"smiles": "Cc1cccc(NC(=O)CCCN2C(=O)C3CC=CCC3C2=O)c1", "note": "(configuration not stated)", "activity change, negative = inhibition": "inactive: 14.2%"}
{"smiles": "CCSc1nc2sc3c(c2c(=O)n1-c1ccc(OC)cc1)CCN(C)C3", "Potency": "inconclusive [inhibitor, single point]"}
{"smiles": "CCN(c1ccccc1)S(=O)(=O)c1ccc(OC)c(NC(=O)C2CC(=O)N(Cc3ccccc3)C2)c1", "note": "(configuration not stated)", "Potency": "inconclusive [inhibitor, single point]"}
{"smiles": "CCCCOc1ccc(CC(=O)NCC(=O)O)cc1", "Potency": "inconclusive [inhibitor, full curve, poor fit]"}
{"smiles": "Cc1cc(C)n(-c2nc(-c3ccc(Cl)cc3)cs2)n1", "activity change, negative = inhibition": "inactive: 6.01%"}
{"smiles": "Cn1cc(C[C@H](NC(=O)OC(C)(C)C)C(=O)N[C@H](CO)Cc2ccccc2)c2ccccc21", "Potency": "inconclusive [inhibitor, single point]"}
{"smiles": "Fc1cccc(CSc2nc3ncc(Cl)cc3[nH]2)c1", "activity change, negative = inhibition": "inactive: -3.67%"}
{"smiles": "COc1ccccc1C(=O)Nc1ccc(S(=O)(=O)N2CCC(C)CC2)cc1", "Potency": "inconclusive [inhibitor, partial curve]"}
{"smiles": "O=C1/C(=C/c2cccs2)SC(=S)N1N1CCOCC1", "activity change, negative = inhibition": "inactive: -14.6%"}
{"smiles": "COc1ccccc1/C=C1\\Oc2cc(OC(=O)N3CCOCC3)ccc2C1=O", "Potency": "inconclusive [inhibitor, single point]"}
{"smiles": "COc1ccc([C@@H]2C(C#N)=C(N)S[C@@H](c3ccccc3)[C@@H]2[N+](=O)[O-])cc1", "Potency": "inconclusive [inhibitor, single point]"}
{"smiles": "Cc1nn(-c2ccccc2)c(Oc2ccccc2)c1C=O", "Potency": "inconclusive [inhibitor, partial curve]"}
{"smiles": "N#CC1=C2SCN(c3ccccc3)CN2C(=O)CC1c1ccccc1Cl", "note": "(configuration not stated)", "activity change, negative = inhibition": "inactive: -1.12%"}
{"smiles": "Cc1cc(C)c2nc(NC(=O)c3ccco3)sc2c1", "Potency": "inconclusive [inhibitor, single point]"}
{"smiles": "CC(=O)Oc1cccc(Nc2ncnc3ccccc23)c1", "activity change, negative = inhibition": "inactive: -20.4%"}
{"smiles": "FC(F)(F)c1ccncc1-c1nnnn1-c1ccc(Cl)cc1", "activity change, negative = inhibition": "inactive: 11.2%"}
{"smiles": "CCc1nc(N2CCC3(CC2)OCCO3)c2nnn(Cc3ccccc3Cl)c2n1", "Potency": "inconclusive [inhibitor, single point]"}
{"smiles": "Cc1ccc(N=Nc2ccc(O)c3ncccc23)cc1C", "Potency": "inconclusive [inhibitor, full curve]"}
